Reference: publication PMC4576195
These are yes or no findings as the source states them, for the method shown. In cells and extracts the contact can be indirect. Some binding calls cover weakened binding; strength is not graded here. Tags and fused reporters may be left off the sequences shown.

Molecular target: endogenous cyclin B1 (293T cells) (human (endogenous in 293T)), P14635
Assay: co-IP
Details: remark: other sources report otherwise

B1: pUL97-Flag, full-length pUL97(1-707), P16788 1-707 (enzyme)
chain: MSSALRSRARSASLGTTTQGWDPPPLRRPSRARRRQWMREAAQAAAQAAVQAAQAAAAQVAQAHVDENEVVDLMADEAGGGVTTLTTLSSVSTTTVLGHATFSACVRSDVMRDGEKEDAASDKENLRRPVVPSTSSRGSAASGDGYHGLRCRETSAMWSFEYDRDGDVTSVRRALFTGGSDPSDSVSGVRGGRKRPLRPPLVSLARTPLCRRRVGGVDAVLEENDVELRAESQDSAVASGPGRIPQPLSGSSGEESATAVEADSTSHDDVHCTCSNDQIITTSIRGLTCDPRMFLRLTHPELCELSISYLLVYVPKEDDFCHKICYAVDMSDESYRLGQGSFGEVWPLDRYRVVKVARKHSETVLTVWMSGLIRTRAAGEQQQPPSLVGTGVHRGLLTATGCCLLHNVTVHRRFHTDMFHHDQWKLACIDSYRRAFCTLADAIKFLNHQCRVCHFDITPMNVLIDVNPHNPSEIVRAALCDYSLSEPYPDYNERCVAVFQETGTARRIPNCSHRLRECYHPAFRPMPLQKLLICDPHARFPVAGLRRYCMSELSALGNVLGFCLMRLLDRRGLDEVRMGTEALLFKHAGAACRALENGKLTHCSDACLLILAAQMSYGACLLGEHGAALVSHTLRFVEAKMSSCRVRAFRRFYHECSQTMLHEYVRKNVERLLATSDGLYLYNAFRRTTSIICEEDLDGDCRQLFPE
binding: binds
